What was measured:
[1] = test system: Sprague-Dawley rats; settings: rat, in vivo
[2] = test system: Sprague-Dawley rats

CCC(=O)O[C@H]1C(=O)[C@@]2(C)C([C@H](OC(=O)c3ccccc3)[C@]3(O)C[C@H](OC(=O)[C@H](O)[C@@H](NC(=O)OC4CCCC4)c4cccs4)C(C)=C1C3(C)C)[C@]1(OC(C)=O)CO[C@@H]1C[C@@H]2O (some centres unmarked) [Compound 18926]
Day 10 BW (recovery), points toward toxicity score [1]: 0
Day 10 PLT (recovery), points toward toxicity score [1]: 0
Day 10 WBC (recovery), points toward toxicity score [1]: 0

CC(=O)O[C@@]12CO[C@@H]1C[C@H](O)[C@@]1(C)C(=O)[C@H](OC(=O)C3CC3)C3=C(C)[C@@H](OC(=O)[C@H](O)[C@@H](NC(=O)OC4CCC4)c4cccs4)C[C@@](O)([C@@H](OC(=O)c4ccccc4)C12)C3(C)C (some centres unmarked) [Compound 18365]
Day 10 BW (recovery), points toward toxicity score [1]: 0
Day 10 PLT (recovery), points toward toxicity score [1]: 0
Day 10 WBC (recovery), points toward toxicity score [1]: 0

CCC(=O)O[C@H]1C(=O)[C@@]2(C)C([C@H](OC(=O)c3ccccc3)[C@]3(O)C[C@H](OC(=O)[C@H](O)[C@@H](NC(=O)OC4CCC4)c4cccs4)C(C)=C1C3(C)C)[C@]1(OC(C)=O)CO[C@@H]1C[C@@H]2O (some centres unmarked) [Compound 19244]
Day 10 BW (recovery), points toward toxicity score [1]: 0
Day 10 PLT (recovery), points toward toxicity score [1]: 0
Day 10 WBC (recovery), points toward toxicity score [1]: 0
axonal degeneration ([2]; 12 mg/kg IV): less than the docetaxel control
Neuro Tox (axonal degeneration score) ([2]; 12 mg/kg IV, individual rats): 0 (no degen axons)
Day 10 BW, recovery score points ([2]; Sprague-Dawley, rat, in vivo): 0
Day 10 PLT, recovery score points ([2]; Sprague-Dawley, rat, in vivo): 0
Day 10 WBC, recovery score points ([2]; Sprague-Dawley, rat, in vivo): 0
